Assay results from PubChem BioAssay AID2101 (National Center for Advancing Translational Sciences (NCATS), 2009).
Among all 330,000 compounds or so, about 300 (0.091%) were called active. Inconclusive results, whose numbers are uncertain, are shown with a selection of clear calls. Calls come from the whole dose curve; as a rule, active = well fitted inhibition curve with a large enough effect; inconclusive = small, poorly fitted or top-dose-only effect, or effect the other way, or another doubt; inactive = no such curve, though single readings can be large or run the other way. No potency is given beside an inconclusive call; the fits are too rough.
Potency is the fitted concentration of half-maximal effect.
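Throughout, for activity change, negative = inhibition: 0% = full enzyme activity and -100% = no enzyme basal.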

What follows are compounds tested against Lysosomal acid glucosylceramidase (Homo sapiens) (UniProt P04062) (assay: qHTS Assay for Inhibitors and Activators of N370S glucocerebrosidase as a Potential Chaperone Treatment of Gaucher Disease). Conditions: N370S GC spleen homogenate, 4MU-glucoside fluorescence; activity change, negative = inhibition: at 59.4 µM (top of the series) unless noted.
With CC(/C=N/NC(=O)Cc1cccn1C)=C\c1ccccc1 the Potency was inconclusive [inhibitor, partial curve, poor fit].
With CCCCOc1cccc(C2/C(=C(\O)c3ccc4c(c3)OCCO4)C(=O)C(=O)N2CCN2CCOCC2)c1 (configuration not stated) the Potency was inconclusive [inhibitor, single point].
COc1ccccc1CNC(=O)COc1cc2c(c3oc(=O)cc(C)c13)CCC(C)(C)O2 was tested, and the Potency was inconclusive [activator, single point].
CCOc1ccc(NS(=O)(=O)c2ccc(C(=O)NNC(=O)c3ccccc3O)cc2)cc1 was tested, and the Potency was inconclusive [inhibitor, partial curve].
In the case of CC(Oc1ccc(Br)cc1Br)C(=O)Nc1cccnc1Cl (configuration not stated), the Potency is reported as inconclusive [activator, single point].
For O=C1N(Cc2ccccc2)c2ccc(Cl)cc2C12OCCO2, the Potency was inconclusive [activator, single point].
COc1ccc(C(NC(=O)C2CCCCC2)c2c(O)ccc3ccccc23)cc1 (configuration not stated) was tested, and the Potency was inconclusive [activator, partial curve].
For COc1ccccc1NC(=O)c1nnn(CC(=O)Nc2cc(C)cc(C)c2)c1N, the Potency was inconclusive [inhibitor, full curve, poor fit].
For CS(=O)(=O)c1cnc2c(-c3ccc(F)cc3)cnn2c1N, the Potency was inconclusive [activator, partial curve, poor fit].
With COc1ccc2c(C)cc(=O)oc2c1 the “activity change, negative = inhibition” value was inactive: 17.5%.
In the case of CCC(=Nc1ccccc1OC)C1=C(O)CC(c2ccccc2)CC1=O (configuration not stated), the “activity change, negative = inhibition” value is reported as inactive: -4.6%.
For O=C(Nc1ccc2c(c1)OCO2)c1c(Cl)nc2sccn12, the “activity change, negative = inhibition” value was inactive: 3.9%.
With COCCCNC(=O)/C(C#N)=C/c1c(N2CCN(C)CC2)nc2ccccn2c1=O the Potency was inconclusive [activator, partial curve].
With Cc1ccsc1C(=O)N(Cc1nnc(-c2ccccc2Cl)o1)C1CC1 the Potency was inconclusive [activator, partial curve].
For CSc1ccccc1NC(=O)CSCc1nc2sc(C)c(C)c2c(=O)[nH]1, the Potency was inconclusive [activator, single point].
With CCCCNC(=O)CC(NS(=O)(=O)c1ccc(C)cc1)c1ccco1 (configuration not stated) the Potency was inconclusive [activator, single point].
With O=c1ccc2c(OCCCCOc3ccccc3)c3ccoc3cc2o1 the Potency was inconclusive [activator, partial curve].
For CCOc1ccc(S(=O)(=O)/N=C(/Nc2ccc(OC)cc2)c2ccccc2)cc1, the Potency was inconclusive [inhibitor, partial curve].
Nc1ccc(-c2nc3ccccc3s2)cn1 was tested, and the Potency was inconclusive [activator, partial curve].
CCN1CCc2c(sc(NC(=O)c3ccc(C(=O)c4ccccc4)cc3)c2C(N)=O)C1 was tested, and the Potency was inconclusive [inhibitor, partial curve].
With O=C(Cc1cc(=O)oc2cc(O)ccc12)NCC1CCC(C(=O)O)CC1 (configuration not stated) the Potency was inconclusive [activator, partial curve].
With COCCNc1ncnc2c1cnn2-c1ccc(Cl)cc1 the “activity change, negative = inhibition” value was inactive: 14.2%.
In the case of CCCC(=O)NC(Nc1ccccc1OC)C(Cl)(Cl)Cl (configuration not stated), the Potency is reported as inconclusive [inhibitor, single point].
With Nc1c(S(=O)(=O)c2cccs2)c2nc3ccccc3nc2n1Cc1cccs1 the Potency was inconclusive [activator, single point].
With COc1ccc(/C=N/NC(=O)c2nnn(-c3nonc3N)c2-c2cccs2)c(OC)c1 the Potency was inconclusive [activator, partial curve].
For COc1ccccc1C(=O)NC(CCSC)C(=O)NNC(=O)c1ccc(F)cc1 (configuration not stated), the “activity change, negative = inhibition” value was inactive: 0.418%.
For O=S1(=O)CCOC[C@H](CC2CCCCC2)N1Cc1ccccc1Br, the “activity change, negative = inhibition” value was inactive: 25.3%.
O=C(Cc1ccc(-n2c(=O)[nH]c3ccccc3c2=O)cc1)N1CCN(c2cccc(Cl)c2)CC1 was tested, and the Potency was inconclusive [inhibitor, single point].
With CCCSc1nc(N2CCCC2)c2c(c1C#N)CC(C)(C)OC2 the Potency was inconclusive [activator, partial curve].
In the case of O=C(COc1ccccc1C(=O)NCc1ccncc1)Nc1ccc(Br)cc1, the Potency is reported as inconclusive [activator, partial curve].
O=S(=O)(Nc1ccccc1Cl)c1cc(NC(=S)NCCN2CCOCC2)ccc1Cl was tested, and the Potency was inconclusive [inhibitor, single point].
Cc1noc(C)c1C(=O)OCC(=O)Nc1cc(Cl)ccc1Oc1ccccc1 was tested, and the Potency was inconclusive [activator, single point].
CC(C)c1ccc(NC(=O)N2CCN(S(=O)(=O)c3ccccc3)CC2)cc1 was tested, and the Potency was inconclusive [activator, partial curve].
With C#CCn1cc(/C=N/Nc2nc3ccccc3[nH]2)c2ccccc21 the “activity change, negative = inhibition” value was inactive: 7.83%.
With COc1ccccc1[C@@H]1C(c2ccccc2)=NN(c2ccccc2)[C@H]1C(=O)N1CCOC1=O the Potency was inconclusive [activator, single point].
In the case of COc1ccccc1CCNC(=O)CCSc1nc(-c2ccco2)cc(C(F)(F)F)n1, the activity change, negative = inhibition is reported as inconclusive: 27.9% [activator].
With Cc1c(O)ccc2c(CN3CCN(Cc4ccccc4)CC3)cc(=O)oc12 the Potency was inconclusive [activator, partial curve].
In the case of O=C(CN(C1CCCCC1)S(=O)(=O)c1ccccc1)NCc1cccnc1, the Potency is reported as inconclusive [inhibitor, partial curve].
For O=[N+]([O-])c1cc([N+](=O)[O-])c(Oc2cc(F)cc(F)c2)cc1NN1CCCCC1, the Potency was inconclusive [inhibitor, full curve, poor fit].
In the case of O=C(Nc1cnn(Cc2ccc(Cl)c(Cl)c2)c1)C12CC3CC(CC(C3)C1)C2, the Potency is reported as inconclusive [activator, single point].
For CC(C)(CNC(=O)Cc1ccc(NS(=O)(=O)c2cccc(C(F)(F)F)c2)cc1)N1CCOCC1, the Potency was inconclusive [inhibitor, partial curve, poor fit].
With O=C(N/N=C/c1cccc(F)c1)NC1CCCCC1 the Potency was inconclusive [activator, partial curve].
In the case of COc1ccc2[nH]c(=O)c(CN(Cc3cccnc3)S(=O)(=O)c3ccccc3F)cc2c1, the Potency is reported as inconclusive [activator, single point].
O=C(CSc1n[nH]c(=O)n1C1CC1)Nc1cc(Cl)ccc1Oc1ccccc1 was tested, and the Potency was inconclusive [activator, partial curve].
With CC1CCCC(NC(=O)CSc2nnc(N)s2)C1C (configuration not stated) the Potency was inconclusive [inhibitor, partial curve, poor fit].
In the case of CCN(CC)CCN1C(=O)/C(=C\c2ccc(Cl)c([N+](=O)[O-])c2)SC1=Nc1ccc(OC)cc1, the Potency is reported as inconclusive [inhibitor, partial curve].
With COCCN(CCOC)C(=O)c1cc2c(=O)n3ccccc3nc2s1 the Potency was inconclusive [activator, partial curve].
For COc1ccc(C(=O)C(OC(=O)c2ccccc2)c2ccccc2)cc1 (configuration not stated), the Potency was inconclusive [activator, single point].
Nc1ccccc1C(=O)/C=C/c1ccc2c(c1)OCO2 was tested, and the Potency was “inactive”.
For CC1(C)CC(=O)/C(=C(\O)c2ccccc2)C(=NCCc2ccccc2)C1, the Potency was inconclusive [inhibitor, single point].
In the case of CC(C)OP(=O)(OC(C)C)C(O)c1ccc(N(C)C)cc1 (configuration not stated), the “activity change, negative = inhibition” value is reported as inactive: -0.717%.
For COC(=O)c1ccc(-c2ccc(CNCC(O)c3ccccc3)o2)cc1 (configuration not stated), the “activity change, negative = inhibition” value was inactive: 0.86%.
With C[C@@H]1[C@H](O)C[C@@]23COC(=O)C2=CCC[C@@H]3[C@@]1(C)CC/C(=C/CO)CO the “activity change, negative = inhibition” value was inactive: -1.49%.
With CC(C)(C)C1CCC(C(=O)NCC(c2cccs2)N2CCOCC2)CC1 (configuration not stated) the Potency was inconclusive [inhibitor, single point].
With Cc1cccc(C(=O)N=c2c(C#N)cc3c(=O)n4cccc(C)c4nc3n2Cc2ccco2)c1 the Potency was inconclusive [activator, partial curve].
COCCn1c(SCC(=O)Nc2ncc(C)s2)nc2sc3c(c2c1=O)CCC3 was tested, and the Potency was inconclusive [activator, partial curve].
CCOC(=O)C1=C(C)N=C2SC(C(=O)OC)=CC(=O)N2C1c1cccc(OC)c1 (configuration not stated) was tested, and the activity change, negative = inhibition was inconclusive: 31.8% [activator].
With ClCc1c2ccccc2cc2ccccc12 the Potency was inconclusive [activator, partial curve].
Cc1cc(N2CCCCC2)nc2ccc(NC(=O)CCC(=O)NCCC(C)C)cc12 was tested, and the “activity change, negative = inhibition” value was inactive: 19%.
In the case of CC[C@H](C)[C@H](NC(=O)[C@H](CCC(=O)O)NC(=O)CNC(=O)[C@H](CCCCN)NC(=O)[C@H](CCC(=O)O)NC(=O)[C@H](CCSC)NC(=O)[C@H](CCSC)NC(=O)[C@H](CCSC)NC(=O)[C@H](CCC(=O)O)NC(=O)CNC(=O)[C@H](CO)NC(=O)[C@H](CO)NC(=O)[C@H](CO)NC(=O)[C@@H](N)CC(N)=O)C(=O)N[C@@H](CCCCN)C(=O)O, the Potency is reported as inconclusive [inhibitor, single point].
With CCCc1cc(=O)oc2cc(OC(=O)CN3C(=O)NC4(CCCC4)C3=O)ccc12 the Potency was inconclusive [activator, partial curve].
For N#CC1(NC(=O)COc2ccccc2[N+](=O)[O-])CCCCC1, the Potency was inconclusive [activator, partial curve].
